From FireProtDB (doi:10.1529/biophysj.104.051052)

Settings: Glycine max, pH 7, GdnHCl, Fluorescence, HEPES 25 mM, CaCl2 15 mM, reversible: yes, whole UniProt chain shown

B1: Lectin wild type, P05046 (protein)
chain: MATSKLKTQNVVVSLSLTLTLVLVLLTSKANSAETVSFSWNKFVPKQPNMILQGDAIVTSSGKLQLNKVDENGTPKPSSLGRALYSTPIHIWDKETGSVASFAASFNFTFYAPDTKRLADGLAFFLAPIDTKPQTHAGYLGLFNENESGDQVVAVEFDTFRNSWDPPNPHIGINVNSIRSIKTTSWDLANNKVAKVLITYDASTSLLVASLVYPSQRTSNILSDVVDLKTSLPEWVRIGFSAATGLDIPGESHDVLSWSFASNLPHASSNIDPLDLTSFVLHEAI
- denaturant m value (8 °C): 7.4 kcal/mol/M
- denaturant m value (10 °C): 6.7 kcal/mol/M
- denaturant m value (15 °C): 5.6 kcal/mol/M
- denaturant m value (20 °C): 6.5 kcal/mol/M
- denaturant m value (22 °C): 6.2 kcal/mol/M
- denaturant m value (25 °C): 6.1 kcal/mol/M
- denaturant m value (27 °C): 6.3 kcal/mol/M
- denaturant m value (30 °C): 5.4 kcal/mol/M
- denaturant m value (33 °C): 5.6 kcal/mol/M
- denaturant m value (40 °C): 5.4 kcal/mol/M
- denaturant m value (45 °C): 5.4 kcal/mol/M
- denaturant m value (50 °C): 5.3 kcal/mol/M
